# Out of some 310,000 compounds screened, about 2,200 (0.71%) showed an effect of 50% or more. Effects have a minus sign here. This is one part of the list.
# Biological target: human ether-à-go-go-related gene (hERG) potassium channel (human, UniProt Q12809)
# Assay: primary screen, population patch clamp on CHO cells stably expressing hERG
# Sequence of human ether-à-go-go-related gene (hERG) potassium channel (Q12809 whole entry, looked up): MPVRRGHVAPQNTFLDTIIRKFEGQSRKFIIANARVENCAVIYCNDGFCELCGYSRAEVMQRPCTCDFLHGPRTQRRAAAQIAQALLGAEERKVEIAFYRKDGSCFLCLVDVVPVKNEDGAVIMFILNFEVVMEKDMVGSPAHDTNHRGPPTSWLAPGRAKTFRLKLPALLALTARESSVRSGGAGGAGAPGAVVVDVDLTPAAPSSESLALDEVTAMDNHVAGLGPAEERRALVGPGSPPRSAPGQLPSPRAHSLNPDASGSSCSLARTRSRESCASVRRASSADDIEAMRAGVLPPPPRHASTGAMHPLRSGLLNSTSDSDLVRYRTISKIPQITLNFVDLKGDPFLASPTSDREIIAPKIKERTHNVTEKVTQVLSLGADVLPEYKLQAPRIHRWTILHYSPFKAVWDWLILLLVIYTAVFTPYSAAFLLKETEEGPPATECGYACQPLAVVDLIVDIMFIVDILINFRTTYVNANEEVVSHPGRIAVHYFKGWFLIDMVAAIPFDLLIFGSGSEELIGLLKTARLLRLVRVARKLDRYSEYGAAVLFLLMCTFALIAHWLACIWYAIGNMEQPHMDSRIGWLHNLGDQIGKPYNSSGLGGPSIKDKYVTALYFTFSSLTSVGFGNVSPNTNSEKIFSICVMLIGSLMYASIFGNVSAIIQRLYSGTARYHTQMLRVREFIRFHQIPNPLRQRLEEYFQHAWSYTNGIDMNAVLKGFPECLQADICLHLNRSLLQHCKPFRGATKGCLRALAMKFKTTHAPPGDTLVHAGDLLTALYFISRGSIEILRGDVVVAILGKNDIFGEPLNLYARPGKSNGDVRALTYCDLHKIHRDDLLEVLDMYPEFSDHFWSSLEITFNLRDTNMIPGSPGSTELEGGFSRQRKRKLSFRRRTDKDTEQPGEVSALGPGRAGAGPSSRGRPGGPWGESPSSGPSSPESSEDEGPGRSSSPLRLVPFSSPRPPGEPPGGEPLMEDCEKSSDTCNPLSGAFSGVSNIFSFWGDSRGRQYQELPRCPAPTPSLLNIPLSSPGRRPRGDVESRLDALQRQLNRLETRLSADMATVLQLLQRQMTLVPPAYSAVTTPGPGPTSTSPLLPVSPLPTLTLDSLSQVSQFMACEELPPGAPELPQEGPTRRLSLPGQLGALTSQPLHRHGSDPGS
row,SMILES,"hERG current change (%, negative = inhibition) at 1uM"
1,CC(C)(C)OC(=O)NCc1ccc(NC(=O)c2nc[nH]c2C(=O)N[C@@H](Cc2ccccc2)C(=O)OC(C)(C)C)cc1,5.81%
2,CN(CCNC(=O)c1cccc(N2CCCC2=O)c1)Cc1ccccc1,5.8%
3,CCCCCCn1c(=O)c(C(=O)Nc2cnccn2)c(O)c2ccccc21,11.1%
4,Cc1ccc(-c2csc(N=C(N)N)n2)c(C)c1,12.7%
5,O=S(=O)(c1ccc(Br)s1)N1CCC2(CC1)OCCO2,14.1%
6,COCCNC(=O)c1cc(Sc2nnc(C)s2)nc2ccccc12,2.29%
7,NC1=NS(=O)(=O)NC1c1ccc(F)cc1 (stereo not shown),11.9%
8,CC(C)CCN1CC(C(=O)N2CCN(c3ccc(F)cc3)CC2)CC1=O (stereo not shown),-6.29%
9,Cc1cc(NC(=O)CN(C)S(=O)(=O)c2ccc(-c3ccc(=O)[nH]n3)s2)ccc1Br,10.7%
10,CCOc1c2ccc(C(=O)NCCc3ccc(C)cc3)cc2nn1CC,2.41%
11,Cc1ccccc1NC(=S)N(Cc1cccnc1)Cc1ccco1,8.15%
12,COc1cccc(C(=O)O/N=C(\N)c2ccc([N+](=O)[O-])cc2)c1OC,6.22%
13,CC(=O)Nc1ccc(NC(=O)c2cccc(Oc3ccccc3)c2)cc1,12%
14,CCCCC(=O)Nc1sc2c(c1C#N)CC(C)(C)OC2,10.9%
15,Cc1ccc(S(=O)(=O)NCC(=O)OC2CCOC2=O)cc1 (stereo not shown),1.01%
16,C=CCNC(=O)c1c(O)c2cccc3c2n(c1=O)CCC3,14.3%
17,COc1ccc(N2CCN(S(=O)(=O)CCNC(=O)/C=C/c3ccccc3)CC2)cc1,-5.44%
18,CC(C)(C)c1ccc(-c2noc(CCC(N)=O)n2)cc1,7.93%
19,CSc1nnc(C)c(=O)n1COC(=O)/C=C/c1ccccc1,7.67%
20,Cc1ccc(S(=O)(=O)NCCC(=O)NCC(c2cccs2)N2CCOCC2)cc1 (stereo not shown),2.91%
21,CCN(CC(=O)Nc1c(F)cccc1F)C(=O)CSc1nc2ccccc2o1,1.98%
22,CC(=O)Cc1nsc(NC(=O)c2ccc(-c3ccc(Cl)c(C(F)(F)F)c3)o2)n1,11.4%

row,SMILES,"hERG current change (%, negative = inhibition) at 1uM"
1,CCc1nc(NCCC(C)C)c2nnn(Cc3ccccc3)c2n1,13.4%
2,CC1CN(CCCOc2ccccc2-c2ccccc2)CC(C)O1.O=C(O)C(=O)O (stereo not shown),4.54%
3,CC(=O)Nc1ccc2c(c1)CCCN2C(=O)c1ccccc1,10.8%
4,O=C(Nc1ccc([N+](=O)[O-])cc1)C1(c2ccccc2)CCOCC1,-23.7%
5,O=C(NC(=S)N(Cc1ccccc1)Cc1ccccc1)C1CCCCC1,13.8%
6,CN(Cc1ccon1)C(=O)CC1C(=O)NCCN1Cc1ccc(F)c(F)c1 (stereo not shown),6.74%
7,CC(C)CC(=O)Nc1ccc2c(c1)nc(CCN1CCCCC1)n2C,5.78%
8,CCN1CCN(C(c2cccs2)C(C)NC(=O)c2ccccc2)CC1 (stereo not shown),7.62%
9,CC1=C(C(=O)OC(C)C)C(C2CC=CCC2)NC(=O)N1 (stereo not shown),10.5%
10,COc1ccc(CN2CCC(C(=O)N(C)CCc3ccc(OC)c(OC)c3)CC2)c(OC)c1.O=C(O)C(=O)O,-18%
11,Cc1cc(NC(=O)COC(=O)c2cccc(S(=O)(=O)N3CCOCC3)c2)no1,21.3%
12,COc1ccc(NC(=O)CN2CCN(S(=O)(=O)c3ccc(Br)cc3)CC2)c(OC)c1,25.1%
13,Cc1ccc(S(=O)(=O)N2CCN(CC(=O)N/N=C/c3ccc(C)o3)CC2)cc1,2.15%
14,CCCC[n+]1ccn(-c2nc3ccccc3nc2[N-]S(=O)(=O)c2ccc(Cl)cc2)c1,-0.782%
15,FC(F)(F)c1cccc(N2CCc3cn[nH]c32)c1,-1.93%
16,CC(C)NC(=O)c1ccccc1NC(=O)CS(=O)(=O)Cc1ccccc1,-3.54%
17,CC1=C(C(=O)N(C)C)C(c2ccccc2OC(F)F)NC(=O)N1 (stereo not shown),26.6%
18,Cc1nn(C2CCOC(C)(C)C2)c2c1C(c1ccc(OC(C)C)cc1)SCC(=O)N2 (stereo not shown),3.79%
19,Cc1ccc(NC(=O)CSc2nnc(-c3ccc(S(=O)(=O)N4CCCC4)cc3)o2)cc1C,2.45%
20,COc1ccccc1NC(=S)N(c1ccccc1)C(C)C,15.8%
21,CCC(C(=O)Nc1cc(C)nn1-c1nc(C)cc(C)n1)c1ccccc1 (stereo not shown),-6.6%
22,Cc1ccc(N2C(=O)C3C4C=CC(CC4)C3C2=O)cc1Br (stereo not shown),17.2%

row,SMILES,"hERG current change (%, negative = inhibition) at 1uM"
1,OCCC1CN(CC#Cc2ccccc2)CCN1C1CCCC1 (stereo not shown),-7.79%
2,COc1ccc(C2=NN(C(=O)CCC(=O)O)C(c3cccs3)C2)cc1OC (stereo not shown),14.5%
3,COc1ccc(CCNC(=O)CCNC(=O)c2ccccc2Cl)cc1,12.4%
4,COc1ccc(-n2c(=O)c3ccccc3n(CC(=O)Nc3ccccc3OC)c2=O)cc1,1.61%
5,CC12CN(Cc3ccccc3)CC(C)(CN(Cc3ccccc3)C1)C2=O,16.1%
6,O=C(NNC(=S)NCc1ccco1)C(c1ccccc1)c1ccccc1,12.8%
7,COc1ccc(N(CC(=O)N/N=C/c2ccc(-c3ccc([N+](=O)[O-])cc3)o2)S(=O)(=O)c2ccc(C)cc2)cc1Cl,11.5%
8,CC(Oc1ccc2c(-c3ccccc3)cc(=O)oc2c1)C(=O)O (stereo not shown),7.43%
9,O=C(CSc1ncn[nH]1)NC1CC2CCC1C2 (stereo not shown),8.56%
10,COc1cc(C2CC(=O)Oc3c(C(CCN4CCCC(C)C4)c4ccc(N(C)C)cc4)c(OC)cc(OC)c32)cc(OC)c1OC (stereo not shown),5.75%
11,CN(C)c1ccsc1C(=O)NNS(=O)(=O)c1ccc(Cl)cc1,6.96%
12,OCCNc1cc(-n2nc(-c3ccccc3)cc2-c2ccccc2)ncn1,9.58%
13,Nc1c(C(=O)OCc2ccccc2)c2nc3ccccc3nc2n1Cc1cccs1,2.61%
14,Cc1cc(OC(=O)c2cc(Cl)ccc2Cl)c([N+](=O)[O-])c(=O)[nH]1,5.14%
15,Cc1cccc(NC(=O)c2ccc(C)c(S(=O)(=O)N3CCCCC3)c2)n1,8.24%
16,Cc1cccc(OCCCC(=O)Nc2nnc(C3CCCO3)s2)c1C (stereo not shown),8.98%
17,CN(C)N1C(N)=C(C#N)C(c2ccsc2)C2=C1CCCC2=O (stereo not shown),-10.4%
18,CCCCn1nc2cc(C(=O)NCc3cc(C(F)(F)F)cc(C(F)(F)F)c3)ccc2c1OC,19.3%
19,Cc1ccc(C2(c3ccccc3)NC(=O)N(CC(=O)NCc3ccco3)C2=O)cc1C (stereo not shown),-7.95%
20,O=C(CSc1ncc(C(F)(F)F)cc1Cl)N1CCN(S(=O)(=O)c2ccc(Cl)cc2)CC1,12.8%
21,Cc1cc(C)n2nc(CC#N)c(C#N)c2n1,9.75%
22,Cc1ccc(NC(=O)[C@H](Cc2c[nH]c3ccccc23)NC(=O)[C@@H]2Cc3ccccc3CN2)c(C)c1,3.31%

row,SMILES,"hERG current change (%, negative = inhibition) at 1uM"
1,O=C(Nc1ccc(Cl)c(Cl)c1)N1CC=C(c2ccccc2)CC1,12.7%
2,O=C(NNC(=O)C1CCCCC1)c1ccc(Br)cc1,15.9%
3,O=C(N/N=C/C(Cl)=C/c1ccc([N+](=O)[O-])cc1)C(=O)Nc1cccc(C(=O)O)c1,17.2%
4,Cc1nnsc1Sc1cccc(C(F)(F)F)c1,6.03%
5,COc1ccccc1C(=O)N=c1sc2c(C)ccc(OC)c2n1C,15.5%
6,O=C(/C=C/Nc1ccc([N+](=O)[O-])cc1)c1ccc(Br)cc1,2.88%
7,Cn1ncc(Br)c1C(=O)Nc1ccc(F)cc1F,13.2%
8,CN(C)c1ccc(N=Nc2ccccc2C(=O)OCC(=O)NCC2CCCCC2)cc1,3.99%
9,COc1ccc(S(=O)(=O)N2CCC(C(=O)NCCC(=O)Nc3cccc(Cl)c3)CC2)cc1,10.7%
10,Cc1ccccc1N1CCN(Cc2c(C#N)c3ccccc3n2C)CC1,4.22%
11,O=C(NCc1ccccn1)c1ccc(Cl)c(S(=O)(=O)N2CCCCCC2)c1,-3.17%
12,NNC(=S)NCCc1ccccc1,6.33%
13,CCCC(=O)NC(C)c1nc2ccccc2n1C(C)C (stereo not shown),11.2%
14,Cc1[nH]n(-c2cccc(Cl)c2)c(=O)c1-c1ccccc1,13.1%
15,O=C(O)CC1C(=O)OCN1C(=O)OCc1ccccc1 (stereo not shown),10.6%
16,c1ccc(-c2cc3ccccc3[nH]2)cc1,15.9%
17,COCCN1C(=O)N(c2ccc(Cl)cc2)C(=O)C1CC(=O)Nc1cc(OC)cc(OC)c1 (stereo not shown),5.78%
18,O=C(NCc1ccccc1Cl)C1CCN(c2cnccn2)CC1,1.71%
19,COc1cc(NC(=O)c2cc3c(Cl)nc4ccccc4c3s2)cc(OC)c1OC,19%
20,CCOC(=O)c1cc2c(nc1N)CC(C)(C)OC2.Cl,18.6%
21,O=c1nc(Nc2ccc(Br)cc2)sc2ccc([N+](=O)[O-])cc12,12.8%
22,O=C(NC(=S)NN1CCCCC1c1cccnc1)c1ccc(Br)cc1 (stereo not shown),-2.95%

# — publication PMC4336329 (PLoS ONE, 2015)
